SMILES strings stand for the structures. The list shows a part of the results. These are further read-outs of the screen, such as a control signal, another cell line or another target. No call is given for them.

Holding throughout (assay): Primary Screen for Target Class Profiling of Small Molecule Inhibitors of Methyltransferases
Assay [1] has as its target Glycine N-methyltransferase (Homo sapiens) (UniProt Q14749). The note with it: purified enzyme, MTase-Glo SAH luminescence; measured here: GNMT inhibition; at 40 µM; stronger effect = lower value. Summed up: (§1)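 Each enzyme was assayed with SAM and its substrate. SAH formation detected by MTase-Glo luminescence; single-point 40 uM screen[…].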
The target in assay [2] is Guanidinoacetate N-methyltransferase (Homo sapiens) (UniProt Q14353). The note with it: purified enzyme, MTase-Glo SAH luminescence; measured here: GAMT inhibition; at 40 µM; stronger effect = lower value. The method, boiled down:
as §1

The target in assay [3] is Histamine N-methyltransferase (Homo sapiens) (UniProt P50135). To be noted: purified enzyme, MTase-Glo SAH luminescence; measured here: HNMT inhibition; at 40 µM; stronger effect = lower value. The method, boiled down:
as §1

The target in assay [4] is Nicotinamide N-methyltransferase (Homo sapiens) (UniProt P40261). To be noted: purified enzyme, MTase-Glo SAH luminescence; measured here: NNMT inhibition; at 40 µM; stronger effect = lower value. The method, boiled down: as §1
The target in assay [5] is Phenylethanolamine N-methyltransferase (Homo sapiens) (UniProt P11086). The note with it: purified enzyme, MTase-Glo SAH luminescence; measured here: PNMT inhibition; at 40 µM; stronger effect = lower value. Summed up: as §1
% is set by controls: 0 for no effect and ±100 for the full control effect.

Turning to `Cc1nc2ccc(C(=O)NCc3cc4n(n3)CCN(C(=O)N(C)C)C4)cc2o1`, the activity change, negative = inhibition in assay [1] is -2.6%; in assay [2], -0.184%; in assay [3], 0.1%; in assay [4], 1.02%; in assay [5] it was -10%.
On to `CCOC(=O)C1(Cc2ccccc2)CCNCC1`, for which the activity change, negative = inhibition in assay [1] is -0.04%; in assay [2], -1.38%; in assay [3], -1.08%; in assay [4], -4.88%; in assay [5], -3.39%.
Take `O=C(NCc1ccccn1)C1CCN(c2cc(C3CC(O)C3)ncn2)CC1` (stereo unspecified): the activity change, negative = inhibition in assay [1] is -2.71%; in assay [2], -0.799%; in assay [3] it was 1.03%; in assay [4], 1.91%; in assay [5], 4.6%.
As to `Cc1cc(F)ccc1NC(=O)CCC1CCCN(Cc2cn[nH]c2-c2cccc(F)c2)C1` (stereo unspecified), the activity change, negative = inhibition in assay [1] is -4.98%; in assay [2], -5.92%; in assay [3] it was -9.75%; in assay [4] it was -10.1%; in assay [5], -18.6%.
With `O=C(Cn1c(=O)n2nc(-c3ccc(F)cc3)nc2c2ccccc21)N1CCN(c2ccccc2F)CC1`, the activity change, negative = inhibition in assay [1] was 5.99%; in assay [2] it was 0%; in assay [3], -1.29%; in assay [4], 0.962%; in assay [5], 2.05%.
Take `CCCC1c2cccn2CCN1C(=O)Nc1cc(C)cc(C)c1` (stereo unspecified): the activity change, negative = inhibition is -0.3% in assay [1]; 2.51% in assay [2]; -11.8% in assay [3]; 2.35% in assay [4]; 8.35% in assay [5].
Take `CN[C@H]1CN(c2ccc3c(=O)c(C(=O)O)cn(-c4nccs4)c3n2)C[C@@H]1OC`: the values for the activity change, negative = inhibition in assay [2], in assay [4] and in assay [5] were -8.75%, -16.2% and -5.76%, respectively.
For the compound `CN(C)CCN1C(=O)c2cc3occc3n2CC1(C)C(=O)NC1CCCCCCC1` (stereo unspecified), the activity change, negative = inhibition was 0.645% in assay [1]; 4.66% in assay [2]; -2.09% in assay [3]; 3.56% in assay [4]; -2.47% in assay [5].
For the compound `Cc1noc(C)c1S(=O)(=O)N1CCC2(CC1)CC(OCC1CC1)CCO2` (stereo unspecified), the activity change, negative = inhibition is -8.24% in assay [1]; -7.3% in assay [2]; -4.5% in assay [3]; -7.96% in assay [4]; -4.31% in assay [5].
For `CC(C)CCn1c(=O)c2ccccc2n2c(=O)n(CC(=O)NCc3ccc(Cl)cc3)nc12` the same measures were 5.8%, 2.79%, 10.7%, 6.01% and 7.39%.
Turning to `CC1CCCCC1NC(=O)C1(C)Cn2c(ccc2-c2ccco2)C(=O)N1Cc1ccc(Cl)cc1` (stereo unspecified), the activity change, negative = inhibition is 1.28% in assay [1]; 0% in assay [2]; 2.35% in assay [3]; 3.71% in assay [4]; -0.707% in assay [5].
For the compound `CC1CCCCC1NC(=O)C1(C)Cn2c(cc3sccc32)C(=O)N1Cc1cccnc1` (stereo unspecified), the activity change, negative = inhibition in assay [1] was 2.48%; in assay [2] it was 0.478%; in assay [3], 3.65%; in assay [4], 0.647%; in assay [5], -0.194%.
For `Cc1ccc2nc(-c3ccc(Cl)c(NC(=O)c4ccc5c(c4)OCCO5)c3)oc2c1`, the values for the activity change, negative = inhibition in assay [2], in assay [4] and in assay [5] were -2.88%, -15.1% and -3.2%, respectively.
As for `COc1ccc(-c2cnc3c(-c4cccc5ncccc45)cnn3c2)cc1`, the activity change, negative = inhibition in assay [1] is 3.02%; in assay [2] it was 6.22%; in assay [3], 5.19%; in assay [4], -7.97%; in assay [5], 0.089%.
As for `CCCN1C(=O)c2nc3ccccc3n2CC1(C)C(=O)NC1CCCCC1` (stereo unspecified), the activity change, negative = inhibition in assay [1] turned out to be 6.5%; in assay [2] it was 6.05%; in assay [3], 8.95%; in assay [4], 8.52%; in assay [5], 2.41%.
As for `CCc1ccc(N2C(=O)c3ccccc3CC2(C)C(=O)NCc2ccccc2)cc1` (stereo unspecified), the activity change, negative = inhibition was -1.64% in assay [1]; 2.06% in assay [2]; -6.89% in assay [3]; -10.2% in assay [4]; -9% in assay [5].
`N[C@@]1(C(=O)O)CC[C@H]2[C@H](C(=O)O)[C@H]21`: the activity change, negative = inhibition in assay [1] was 0.913%; in assay [2] it was 9.22%; in assay [3] it was 3.24%; in assay [4] it was -11.1%; in assay [5] it was -4.78%.
For `Cc1cc2c(cc3n2CC(C)(C(=O)NC2CCCCCC2)N(CCCN2CCOCC2)C3=O)o1` (stereo unspecified), the activity change, negative = inhibition is 1.81% in assay [1]; 0.266% in assay [2]; 3.92% in assay [3]; 1.51% in assay [4]; -0.582% in assay [5].
In the case of `COc1ccccc1CNC(=O)C1(C)Cn2cnc(C(=O)NCc3ccc(F)cc3)c2C(=O)N1C1CC1` (stereo unspecified), the activity change, negative = inhibition is 3.48% in assay [1]; 0% in assay [2]; 11.7% in assay [3]; 1.97% in assay [4]; 9.18% in assay [5].
Regarding `CCn1c(=O)c2ccnn2c2ccc(C(=O)NCc3ccc(N4CCOCC4)cc3)cc21`, the activity change, negative = inhibition in assay [1] is -14.8%; in assay [2], -9.65%; in assay [3] it was -8.02%; in assay [4] it was -29.2%; in assay [5], -14.6%.
On to `CN[C@H](CC(C)C)C(=O)N[C@H]1C(=O)N[C@@H](CC(N)=O)C(=O)N[C@H]2C(=O)N[C@H]3C(=O)N[C@H](C(=O)N[C@H](C(=O)O)c4cc(O)cc(O)c4-c4cc3ccc4O)[C@H](O)c3ccc(c(Cl)c3)Oc3cc2cc(c3O[C@@H]2O[C@H](CO)[C@@H](O)[C@H](O)[C@H]2O[C@H]2C[C@](C)(N)[C@H](O)[C@H](C)O2)Oc2ccc(cc2Cl)[C@H]1O`, for which the activity change, negative = inhibition in assay [1] is -3.84%; in assay [2] it was 4.06%; in assay [3], 1.39%; in assay [4], -4.56%; in assay [5], 6.83%.
Consider `NC(=O)C1CCN(C(=O)CCCc2nnc3n4nc(-c5ccccc5)nc4c4ccccc4n23)CC1`, for which the activity change, negative = inhibition in assay [1] is -1.7%; in assay [2], 0%; in assay [3] it was 7.88%; in assay [4] it was 11.5%; in assay [5] it was 4.22%.
Taken in the same sequence, the figures for `C=Cc1ccc(CSc2nnc3n(CCC)c(=O)c4cc(Cl)ccc4n23)cc1` were -24.9%, -0.244%, -1.76%, -16% and -4.67%.
Take `COCCCN1C(=O)c2nc3ccccc3n2CC1(C)C(=O)NC1CCCCC1C` (stereo unspecified): the activity change, negative = inhibition was determined as 6.9% in assay [1]; 0% in assay [2]; 9.75% in assay [3]; 15.5% in assay [4]; 3.17% in assay [5].
Take `COc1c(C)cnc(Cn2cc(C#CCC(C)(C)O)c3c(Cl)nc(N)nc32)c1C`: the activity change, negative = inhibition in assay [1] is -25.3%; in assay [2], -7.86%; in assay [3], 3.34%; in assay [4], -21.5%; in assay [5] it was -3.6%.
Take `COc1cc2ncnc(Oc3cccc(NC(=O)Nc4cc(C(C)(C)C(F)(F)F)on4)c3)c2cc1OC`: the activity change, negative = inhibition in assay [1] was 4.49%; in assay [2], 19.3%; in assay [3] it was 12.2%; in assay [4], -24%; in assay [5], 9.11%.
Turning to `O=C(COc1ccc(Cl)cc1)NC1CCC(NC(=O)COc2ccc(Cl)cc2)CC1` (stereo unspecified), the activity change, negative = inhibition in assay [1] is 0.511%; in assay [2], -6.32%; in assay [3], -5.33%; in assay [4] it was -16.9%; in assay [5] it was -3.87%.
In the case of `CCc1ccc(CNC(=O)CCn2ccc3cc(S(=O)(=O)N4CCCCC4)ccc32)cc1`, the activity change, negative = inhibition in assay [1] amounted to 6.69%; in assay [2], 2.5%; in assay [3] it was 5.14%; in assay [4] it was 3.24%; in assay [5] it was 3.38%.
With `COc1ccc(-c2n[nH]c3c2CC(=O)N(c2ccccc2)C3)cn1`, the activity change, negative = inhibition in assay [1] is -10.7%; in assay [2], -14.3%; in assay [3], -6.45%; in assay [4], -21.2%; in assay [5], -14.6%.
Consider `CC1(C(=O)NC2CCCCCC2)Cn2nc(-c3ccco3)cc2C(=O)N1Cc1cccc(Cl)c1` (stereo unspecified), for which the activity change, negative = inhibition in assay [1] is -2.15%; in assay [2] it was 0%; in assay [3], 1.23%; in assay [4], -2.14%; in assay [5] it was -2.5%.
